From PubChem BioAssay (NCATS)
The shares of active, inactive and inconclusive entries below differ from those in the screen. For some assays here: Potencies beside an inconclusive call are fits to weak or partial responses and may not hold up. For some assays here: A note “side channel” means that the fit belongs to a control or component signal, not to the main read-out. Activity calls are given as the source filed them. Unless noted, the call rests on the fitted dose curve.

Columns and labels:
[1] = biological target: Estrogen receptor (Homo sapiens) (UniProt P03372); assay: qHTS assay for small molecule antagonists of estrogen receptor alpha signaling (AID 588513; active means well fitted curve in the direction sought with a large enough effect in the signal ratio, with a control signal flat, not every such curve was filed as active; inconclusive means small, poorly fitted or top-dose-only effect, or effect the other way, or a change in a side signal; inactive means no such curve, though single readings can be large or run the other way; the % refers to the signal ratio; further: potency means the concentration at half of the fitted maximal effect; on activity, negative = inhibition: on the % scale 0 is the no-effect control and ±100 the full control effect); settings: ER-alpha-UAS-bla HEK293, beta-lactamase ratio, antagonist mode; activity, negative = inhibition: at 76.9 µM (top of the series) unless noted
UniProt P03372, sequence (P03372 whole entry, looked up): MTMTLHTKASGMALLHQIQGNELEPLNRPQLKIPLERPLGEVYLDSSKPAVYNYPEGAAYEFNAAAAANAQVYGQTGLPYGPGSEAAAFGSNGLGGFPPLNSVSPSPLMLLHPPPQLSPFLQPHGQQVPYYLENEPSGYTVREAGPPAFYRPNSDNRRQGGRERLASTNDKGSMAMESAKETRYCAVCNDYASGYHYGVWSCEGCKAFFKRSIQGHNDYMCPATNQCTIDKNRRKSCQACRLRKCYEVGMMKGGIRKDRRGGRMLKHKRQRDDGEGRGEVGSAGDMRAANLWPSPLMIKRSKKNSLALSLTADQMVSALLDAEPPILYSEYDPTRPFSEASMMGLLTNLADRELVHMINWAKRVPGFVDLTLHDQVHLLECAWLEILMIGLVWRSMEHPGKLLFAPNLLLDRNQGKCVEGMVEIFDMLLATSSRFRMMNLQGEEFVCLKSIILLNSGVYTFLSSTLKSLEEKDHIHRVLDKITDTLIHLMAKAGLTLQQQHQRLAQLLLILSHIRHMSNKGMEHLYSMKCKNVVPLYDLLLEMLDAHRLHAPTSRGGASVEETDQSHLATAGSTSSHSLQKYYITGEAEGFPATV
Outline: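 Beta-lactamase reporter, antagonist mode, HEK 293 GripTite cells; 0.5nM E2 stimulus, 18 h, 37 C; CCF4 dye 2 h RT; fluorescence. IC50 and efficacy from Hill fits, normalized to E2 and DMSO.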

[2] = biological target: Estrogen receptor (Homo sapiens) (UniProt P03372); assay: qHTS assay for small molecule agonists of estrogen receptor alpha signaling (AID 588514); settings: ER-alpha-UAS-bla HEK293, beta-lactamase ratio, 18 h; activation: at 76.8 µM (top of the series), percent of full estradiol response, vehicle zero; further: nearly all actives have a fitted effect of over 70% in size; further: potency means the concentration at half of the fitted maximal effect;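 on activation: 0% = vehicle only and 100% = reference agonist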
Outline: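 Cells were plated at 5000/well, incubated 4 hrs at 37 C, dosed with compound titration series, incubated 18 hrs at 37 C, loaded with CCF4 dye for 2 hrs at RT, then fluorescence was read.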

[3] = biological target: Bile acid receptor (Homo sapiens) (UniProt Q96RI1); assay: qHTS assay for small molecule antagonists of farnesoid X receptor signaling (AID 588526); settings: HEK293T FXR-UAS-bla, beta-lactamase ratio, antagonist mode; activity change, negative = inhibition: at 76.7 µM (top of the series); further: potency means the concentration at half of the fitted maximal effect
Outline: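 Concentration-response titrations were fitted to the Hill equation for half-maximal inhibition and maximal response, with data normalised to 50 uM chenodeoxycholic acid and DMSO control wells. Cells: FXR-UAS-bla HEK293T, dialyzed FBS.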

[4] = biological target: Glucocorticoid receptor (Homo sapiens) (UniProt P04150); assay: qHTS assay for small molecule antagonists of glucocorticoid receptor signaling (AID 588533; active means well fitted inhibition curve with a large enough effect in the signal ratio, with a control signal flat, not every such curve was filed as active; inconclusive means small, poorly fitted or top-dose-only effect, or effect the other way, or a change in a side signal; the % refers to the signal ratio;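 further: cells stimulated with 2 nM dexamethasone as agonist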; further: potency means the concentration at half of the fitted maximal effect; on activity change, negative = inhibition: on the % scale 0 is the no-effect control and ±100 the full control effect); settings: HeLa MMTV-bla, GRE beta-lactamase ratio, antagonist mode, 18 h; activity change, negative = inhibition: at 76.8 µM (top of the series) unless noted
[5] = biological target: Peroxisome proliferator-activated receptor delta (Homo sapiens) (UniProt Q03181); assay: qHTS assay for small molecule agonists of peroxisome proliferator-activated receptor delta signaling (AID 588534); settings: HEK293T PPARdelta-UAS-bla, beta-lactamase ratio, 18 h; activation: at 76.7 µM (top of the series); further: potency means the concentration at half of the fitted maximal effect;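 on activation: 0% = DMSO basal wells and 100% = positive control agonist at 10 µM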
UniProt Q03181, sequence (Q03181 whole entry, looked up): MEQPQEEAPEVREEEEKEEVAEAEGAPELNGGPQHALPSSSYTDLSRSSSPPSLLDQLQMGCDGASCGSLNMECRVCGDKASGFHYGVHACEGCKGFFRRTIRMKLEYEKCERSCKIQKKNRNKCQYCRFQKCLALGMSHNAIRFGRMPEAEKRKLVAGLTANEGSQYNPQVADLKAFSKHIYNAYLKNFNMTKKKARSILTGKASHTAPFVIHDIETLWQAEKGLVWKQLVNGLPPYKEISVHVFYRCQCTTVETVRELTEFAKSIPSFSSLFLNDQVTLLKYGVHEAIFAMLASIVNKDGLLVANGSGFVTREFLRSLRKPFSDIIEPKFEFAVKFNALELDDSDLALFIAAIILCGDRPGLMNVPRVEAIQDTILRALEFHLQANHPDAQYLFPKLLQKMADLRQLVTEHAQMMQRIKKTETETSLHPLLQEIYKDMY
Outline: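 Fluorescence from CCF4 substrate cleavage by beta-lactamase reporter, read 2 hrs at RT, measured agonist activity. Compounds were tested with 18 hrs exposure at 37 C. Concentration-response data fitted to Hill equation.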

[6] = biological target: Peroxisome proliferator-activated receptor delta (Homo sapiens) (UniProt Q03181); assay: qHTS assay for small molecule antagonists of peroxisome proliferator-activated receptor delta signaling (AID 588535; active means well fitted inhibition curve with a large enough effect in the signal ratio, with a control signal flat, not every such curve was filed as active; inconclusive means small, poorly fitted or top-dose-only effect, or effect the other way, or a change in a side signal; inactive means no such curve, though single readings can be large or run the other way; the % refers to the signal ratio; further: potency means the concentration at half of the fitted maximal effect); settings: HEK293T PPARd-UAS-bla, beta-lactamase FRET ratio, 18 h; activity change, negative = inhibition: at 76.7 µM (top of the series) unless noted
Outline: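 Reporter: UAS-bla under PPAR-delta response element, HEK293T host. Medium: 2% charcoal/dextran FBS. Dosing: titration, 18 hrs, 37 C. Detection: CCF4, 2 hrs RT, 405 ex/460 and 530 em.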

[7] = biological target: Peroxisome proliferator-activated receptor gamma (Homo sapiens) (UniProt P37231); assay: qHTS assay for small molecule agonists of peroxisome proliferator-activated receptor gamma signaling (AID 588536; active means well fitted curve in the direction sought with a large enough effect in the signal ratio, with a control signal flat, not every such curve was filed as active; inconclusive means small, poorly fitted or top-dose-only effect, or effect the other way, or a change in a side signal; inactive means no such curve, though single readings can be large or run the other way; the % refers to the signal ratio; further: potency means the concentration at half of the fitted maximal effect;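 on activation: 0% = DMSO basal wells and 100% = rosiglitazone at 2 µM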); settings: HEK293 PPARg-UAS-bla, beta-lactamase ratio, 16 h; activation: at 76.7 µM (top of the series), percent of rosiglitazone response, DMSO as zero unless noted
Outline: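 HEK293 UAS-bla reporter line, 1% charcoal/dextran FBS; titration, 16 h, 37 C; CCF4 loading 2 h RT; fluorescence 460/530 nm. Normalized to rosiglitazone 2 uM = 100%, DMSO = 0%.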

[8] = biological target: Peroxisome proliferator-activated receptor gamma (Homo sapiens) (UniProt P37231); assay: qHTS assay for small molecule antagonists of peroxisome proliferator-activated receptor gamma signaling (AID 588537; active means well fitted inhibition curve with a large enough effect in the signal ratio, with a control signal flat, not every such curve was filed as active; inconclusive means small, poorly fitted or top-dose-only effect, or effect the other way, or a change in a side signal; the % refers to the signal ratio; further: potency means the concentration at half of the fitted maximal effect;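 further: reporter cells co-stimulated with 50 nM rosiglitazone agonist during compound treatment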; on activity, negative = inhibition: % of control where 0% means no effect); settings: HEK293 PPARg-UAS-bla, beta-lactamase ratio, antagonist mode; activity, negative = inhibition: at 76.8 µM (top of the series)
Outline: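 We seeded GeneBLAzer HEK293 reporter cells at 3000 per well, allowed 6-6.5 h attachment at 37 C, then co-treated with test compound titrations and 50 nM rosiglitazone overnight (16 h). Inhibition was quantified from 460/530 nm emission ratios.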

[9] = biological target: Vitamin D3 receptor (Homo sapiens) (UniProt P11473); assay: qHTS assay for small molecule antagonists of vitamin D receptor signaling (AID 588541); settings: HEK293T VDR-UAS-bla, beta-lactamase ratio, antagonist mode; activity change, negative = inhibition: at 76.7 µM (top of the series);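 further: receptor activated by calcitriol during compound treatment; on the % scale 0 is the no-effect control and ±100 the full control effect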
[10] = biological target: Retinoic acid receptor RXR-alpha (Homo sapiens) (UniProt P19793); assay: qHTS assay for small molecule antagonists of retinoid X receptor alpha signaling (AID 588546; active means well fitted inhibition curve with a large enough effect in the signal ratio, with a control signal flat, not every such curve was filed as active; inconclusive means small, poorly fitted or top-dose-only effect, or effect the other way, or a change in a side signal; inactive means no such curve, though single readings can be large or run the other way; the % refers to the signal ratio; further: potency means the concentration at half of the fitted maximal effect); settings: HEK293T RXRa-UAS-bla, beta-lactamase ratio, antagonist mode
UniProt P19793, sequence (P19793 whole entry, looked up): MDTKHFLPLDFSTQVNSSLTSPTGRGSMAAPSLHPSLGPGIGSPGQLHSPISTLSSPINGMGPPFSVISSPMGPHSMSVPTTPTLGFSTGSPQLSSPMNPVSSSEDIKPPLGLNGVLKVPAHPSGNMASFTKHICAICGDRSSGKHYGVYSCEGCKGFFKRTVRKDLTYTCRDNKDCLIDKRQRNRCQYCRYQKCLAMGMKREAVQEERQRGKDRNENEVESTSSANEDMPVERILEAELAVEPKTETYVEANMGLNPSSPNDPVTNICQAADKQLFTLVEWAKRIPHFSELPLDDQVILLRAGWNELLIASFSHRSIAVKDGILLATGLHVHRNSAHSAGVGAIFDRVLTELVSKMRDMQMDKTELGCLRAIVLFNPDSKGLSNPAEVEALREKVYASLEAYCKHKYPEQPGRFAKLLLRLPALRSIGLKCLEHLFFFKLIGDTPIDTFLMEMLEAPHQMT
Outline: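 Beta-lactamase reporter inhibition, read as CCF4 fluorescence ratio (ex 405, em 460/530 nm) after 2 h at RT. HEK293T UAS-bla cells, 2500/well, were stimulated with 9-cis-RA at 500 or 100 nM final alongside test compound for 18 h at 37 C.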

[11] = biological target: Thyroid hormone receptor beta (Homo sapiens) (UniProt P10828); assay: qHTS assay for small molecule antagonists of thyroid hormone receptor beta signaling (AID 588547; active means well fitted inhibition curve with a large enough effect in the signal ratio, with a control signal flat, not every such curve was filed as active; inconclusive means small, poorly fitted or top-dose-only effect, or effect the other way, or a change in a side signal; the % refers to the signal ratio; further: potency means the concentration at half of the fitted maximal effect); settings: TR-UAS-bla HEK293, beta-lactamase ratio, antagonist mode, 18 h
UniProt P10828, sequence (P10828 whole entry, looked up): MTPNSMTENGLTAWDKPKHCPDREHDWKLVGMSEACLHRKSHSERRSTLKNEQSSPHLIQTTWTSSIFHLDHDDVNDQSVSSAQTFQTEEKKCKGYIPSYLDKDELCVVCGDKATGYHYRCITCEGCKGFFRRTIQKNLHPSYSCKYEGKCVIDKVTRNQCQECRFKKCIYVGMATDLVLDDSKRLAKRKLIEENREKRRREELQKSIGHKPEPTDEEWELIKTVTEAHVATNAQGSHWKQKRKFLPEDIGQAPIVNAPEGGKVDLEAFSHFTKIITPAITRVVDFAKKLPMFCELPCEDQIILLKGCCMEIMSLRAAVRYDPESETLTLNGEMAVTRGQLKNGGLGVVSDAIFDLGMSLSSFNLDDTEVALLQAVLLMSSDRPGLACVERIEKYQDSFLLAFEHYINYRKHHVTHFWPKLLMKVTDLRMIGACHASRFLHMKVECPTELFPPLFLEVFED
Outline: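 TR-UAS-bla GripTite HEK293 cells in 2% charcoal/dextran FBS medium were preincubated 4 h at 37 C, given compound (0.59 nM to 92 uM) plus 0.4 nM T3 (final) for 18 h, then CCF4 for 2 h at RT; Hill fit gave IC50.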

[12] = qHTS assay for small molecule agonists of the antioxidant response element (ARE) signaling pathway (AID 651741; active means well fitted activation curve with a large enough effect in the signal ratio; inconclusive means small, poorly fitted or top-dose-only effect, or effect the other way, or a change in a side signal; the % refers to the signal ratio; further: potency means the concentration at half of the fitted maximal effect); settings: HepG2 ARE-bla reporter, beta-lactamase FRET ratio, 16 h; activation: at 96 µM (top of the series) unless noted
Outline: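 Compounds in DMSO are pinned onto HepG2 ARE-bla cells (2,000/well) that were preincubated 5 h; plates stay 16 h at 37 C, then beta-lactamase activity is detected with LiveBLAzer B/G substrate by fluorescence.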

[13] = biological target: Bile acid receptor (Homo sapiens) (UniProt Q96RI1); assay: qHTS assay for small molecule agonists of farnesoid X receptor signaling (AID 588527); settings: HEK293T FXR-UAS-bla, beta-lactamase ratio, 16 h; activation: hits give high values;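 further: 0% = vehicle basal and 100% = reference agonist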
Outline: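 Quantitative HTS used FXR-UAS-bla HEK293T cells with 16 h compound incubation at 37 C. EC50 values came from concentration-response curves normalized to chenodeoxycholic acid.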

[14] = biological target: Retinoic acid receptor RXR-alpha (Homo sapiens) (UniProt P19793); assay: qHTS assay for small molecule agonists of retinoid X receptor alpha signaling (AID 588544); settings: HEK293T RXRa-UAS-bla, beta-lactamase reporter, 18 h; activation: at 76.7 µM (top of the series) unless noted;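 further: 0% = DMSO basal wells and 100% = reference agonist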
[15] = qHTS assay for small molecule activators of the nuclear factor-kappa B (NF-kB) signaling pathway (AID 651749; active means well fitted activation curve with a large enough effect in the signal ratio; inconclusive means small, poorly fitted or top-dose-only effect, or a change in a side signal; the % refers to the signal ratio; further: potency means the concentration at half of the fitted maximal effect); settings: NF-kB-bla ME-180 cells, beta-lactamase FRET ratio, 16 h; activation: hits give high values
Outline: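 Screening used 2,000 ME-180 reporter cells per well exposed to pinned compound (23 nL) or DMSO; after 16 hr at 37C, beta-lactamase expression under NF-kB control was assessed through FRET.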

[16] = biological target: Peroxisome proliferator-activated receptor alpha (Homo sapiens) (UniProt Q07869); assay: qHTS assay for small molecule agonists of the peroxisome proliferator-activated receptor alpha (PPARalpha) signaling pathway (AID 651778; active means well fitted curve in the direction sought with a large enough effect; inconclusive means small, poorly fitted or top-dose-only effect, or another doubt; inactive means no such curve, though single readings can be large; an effect the other way counts as inactive or inconclusive; further: potency means the concentration at half of the fitted maximal effect); settings: PathHunter PPARalpha complementation, chemiluminescence, 6 h; max response: hits give high values
UniProt Q07869, sequence (Q07869 whole entry, looked up): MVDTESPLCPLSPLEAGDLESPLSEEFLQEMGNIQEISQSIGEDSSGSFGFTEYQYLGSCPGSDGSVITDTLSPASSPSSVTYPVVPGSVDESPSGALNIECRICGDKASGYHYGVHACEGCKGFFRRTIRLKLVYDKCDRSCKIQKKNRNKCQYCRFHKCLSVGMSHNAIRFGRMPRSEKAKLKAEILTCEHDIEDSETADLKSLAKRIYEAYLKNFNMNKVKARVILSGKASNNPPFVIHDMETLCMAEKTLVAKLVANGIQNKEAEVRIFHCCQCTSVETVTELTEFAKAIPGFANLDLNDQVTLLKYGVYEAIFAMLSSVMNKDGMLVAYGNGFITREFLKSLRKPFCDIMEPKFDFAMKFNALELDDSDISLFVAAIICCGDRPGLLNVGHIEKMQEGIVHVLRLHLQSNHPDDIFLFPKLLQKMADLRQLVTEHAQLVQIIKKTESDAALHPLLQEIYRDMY
Outline: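 Cells plated at 2,000/well and held overnight at 37 C, 5% CO2, then compound added by pin tool for 6 hr; after PathHunter detection reagent and 60 min at room temperature, chemiluminescence from enzyme complementation was read.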

[17] = qHTS assay for small molecule agonists of the antioxidant response element (ARE) signaling pathway measured by Nrf2-dependant transcriptional activity - cell viability counter screen (AID 720653; active means well fitted curve in the direction sought with a large enough effect in the repeat runs; inconclusive means weak or mixed curves; inactive means no such curve, though single readings can be large; an effect the other way counts as inactive or inconclusive; further: on the % scale 0 is the no-effect control and ±100 the full control effect); settings: ARE-bla HepG2 viability, CellTiter-Glo ATP luminescence, 16 h; max response: hits give low values
Outline: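 ARE-bla HepG2 cells (2,000/well) rested 5 hrs at 37C/5% CO2, then exposed to compounds in DMSO for 16 hrs. Viability was read in the same wells as intracellular ATP by luminescence, 30 min at room temperature after reagent addition.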

[18] = biological target: Androgen receptor (Homo sapiens) (UniProt P10275); assay: qHTS assay for small molecule antagonists of androgen receptor signaling (AID 588516; active means well fitted curve in the direction sought with a large enough effect in the signal ratio, with a control signal flat, not every such curve was filed as active; inconclusive means small, poorly fitted or top-dose-only effect, or effect the other way, or a change in a side signal; inactive means no such curve, though single readings can be large or run the other way; the % refers to the signal ratio; further: potency means the concentration at half of the fitted maximal effect); settings: AR-UAS-bla HEK293, beta-lactamase ratio, antagonist mode, 16 h; activity change, negative = inhibition: at 76.8 µM (top of the series)
UniProt P10275, sequence (P10275 whole entry, looked up): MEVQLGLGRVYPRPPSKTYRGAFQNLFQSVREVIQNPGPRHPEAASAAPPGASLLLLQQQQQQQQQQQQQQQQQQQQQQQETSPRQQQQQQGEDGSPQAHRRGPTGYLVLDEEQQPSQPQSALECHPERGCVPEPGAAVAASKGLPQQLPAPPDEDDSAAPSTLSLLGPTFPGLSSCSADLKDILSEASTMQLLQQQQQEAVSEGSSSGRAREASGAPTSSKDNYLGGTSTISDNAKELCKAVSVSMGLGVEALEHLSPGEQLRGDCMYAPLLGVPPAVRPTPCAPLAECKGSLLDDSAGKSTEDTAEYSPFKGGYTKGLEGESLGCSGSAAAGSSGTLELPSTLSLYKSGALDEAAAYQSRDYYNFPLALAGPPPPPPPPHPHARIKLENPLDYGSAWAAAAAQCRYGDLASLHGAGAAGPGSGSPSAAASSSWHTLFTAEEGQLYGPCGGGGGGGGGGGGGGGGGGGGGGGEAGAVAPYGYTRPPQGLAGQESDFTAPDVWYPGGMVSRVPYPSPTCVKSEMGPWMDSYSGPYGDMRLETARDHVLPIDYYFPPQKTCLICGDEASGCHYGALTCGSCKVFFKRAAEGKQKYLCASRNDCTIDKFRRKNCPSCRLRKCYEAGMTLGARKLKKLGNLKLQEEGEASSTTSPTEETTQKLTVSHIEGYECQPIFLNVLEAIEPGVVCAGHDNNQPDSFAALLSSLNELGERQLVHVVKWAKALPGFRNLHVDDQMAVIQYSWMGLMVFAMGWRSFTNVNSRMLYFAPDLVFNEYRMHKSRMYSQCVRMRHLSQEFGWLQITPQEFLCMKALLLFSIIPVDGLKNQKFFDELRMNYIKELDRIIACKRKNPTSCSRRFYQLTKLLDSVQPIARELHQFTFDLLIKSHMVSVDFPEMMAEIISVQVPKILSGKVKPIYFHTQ
Outline: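 Antagonist-mode qHTS: inhibition of R1881 (10 nM)-driven beta-lactamase expression in GripTite HEK 293 cells is measured after 16 h; values are Hill-derived IC50s normalized between R1881 and DMSO wells.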

[19] = qHTS assay for small molecule activators of the p53 signaling pathway (AID 651743; active means well fitted activation curve with a large enough effect in the signal ratio, not every such curve was filed as active; inconclusive means small, poorly fitted or top-dose-only effect, or a change in a side signal; the % refers to the signal ratio; further: potency means the concentration at half of the fitted maximal effect); settings: HCT-116 p53RE-bla, beta-lactamase FRET ratio, 16 h; activation: hits give high values
Outline: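 Cell-based beta-lactamase reporter (p53 response elements, HCT-116 background). After a 5-hour preincubation, cells received compound for 16 hours at 37 C; substrate development ran 2 hours at room temperature.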

[20] = qHTS assay for small molecule agonists of the antioxidant response element (ARE) signaling pathway measured by Nrf2-dependant transcriptional activity (AID 720636; active means well fitted curve in the direction sought with a large enough effect in the repeat runs; inconclusive means weak or mixed curves; inactive means no such curve, though single readings can be large; an effect the other way counts as inactive or inconclusive; further: % of control where 0% means no effect)
Outline: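 ARE-luc HepG2 cells carrying an Nrf2-responsive luciferase reporter, in medium with 1% dialyzed FBS, exposed to compound for 16 hr at 37 C, 5% CO2. Luminescence read 30 min after ONE-Glo addition.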

[21] = qHTS assay for cell viability of the p53RE-bla HCT-116 cell line (AID 743292; active means well fitted curve in the direction sought with a large enough effect; inconclusive means small, poorly fitted or top-dose-only effect, or another doubt; inactive means no such curve, though single readings can be large; an effect the other way counts as inactive or inconclusive; further: potency means the concentration at half of the fitted maximal effect; nearly all actives have a fitted effect of over 55% in size)
Outline: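 CellSensor p53RE-bla HCT-116 cells (4,000/well) pre-incubated 5 h at 37 C, then exposed to compounds in DMSO for 16 h at 37 C. Viability read as ATP content by CellTiter-Glo luminescence after 30 min at room temperature.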
Tags describe the fitted curve by direction and shape or compound fluorescence and quenching.

COC(=O)N(OC)c1ccccc1COc1ccn(-c2ccc(Cl)cc2)n1
inconclusive: Potency [1] 10 µM [side channel, rising, partial curve, poor fit] | Potency [2] 0.158 µM [inhibitor, full curve, poor fit] | Potency [3] 4.47 µM [side channel, rising, full curve, poor fit] | activity change, negative = inhibition [4] -58.1% | Potency [5] 6.31 µM [fluorescent, side channel, full curve] | Potency [6] 2.51 µM [side channel, rising, full curve] | Potency [7] 31.6 µM [inhibitor, partial curve] | activity, negative = inhibition [8] -106% | activity change, negative = inhibition [9] -52.9%
active: Potency [10] 3.16 µM | Potency [11] 6.31 µM | Potency [12] 5.45 µM

CCOc1cc(Oc2ccc(C(F)(F)F)cc2Cl)ccc1[N+](=O)[O-]
inactive: Potency [5] | max response [17] -9.09%
inconclusive: activity, negative = inhibition [1] -34.8% | activation [2] -25% | Potency [3] 56.2 µM [inhibitor, single point] | activation [13] 19% | Potency [6] 0.0398 µM [inhibitor, full curve, poor fit] | activation [7] -9.85% | Potency [8] 39.8 µM [inhibitor, partial curve, poor fit] | activation [14] -25% | Potency [11] 0.199 µM [fluorescent, side channel, full curve, poor fit] | Potency [15] 15.8 µM [activator, single point] | Potency [16] 50.1 µM [activator, single point]

CCCCCCCCCCCCC1=C(OC(C)=O)C(=O)c2ccccc2C1=O
inactive: Potency [20]
active: Potency [19] 11.2 µM
inconclusive: Potency [1] 2.82 µM [side channel, rising, full curve] | Potency [2] 25.1 µM [side channel, falling, partial curve, poor fit] | Potency [18] 28.2 µM [falling, partial curve, poor fit] | Potency [4] 11.2 µM [inhibitor, full curve, poor fit] | Potency [5] 6.31 µM [side channel, rising, partial curve] | Potency [6] 14.1 µM [side channel, partial curve, poor fit] | activation [7] -18.1% | Potency [8] 12.6 µM [side channel, rising, full curve] | activity change, negative = inhibition [9] -33% | activation [14] 30.5% | Potency [10] 14.1 µM [inhibitor, partial curve, poor fit] | Potency [11] 3.16 µM [inhibitor, full curve, poor fit] | Potency [12] 17.2 µM [activator, full curve, poor fit] | Potency [21] 44.7 µM [cytotoxic, partial curve, poor fit]
